Laboratory results: US11542275B2, “Substituted imidazolidin-2-one derivatives as PRMT5 inhibitors” (Aurigene Discovery Technologies Limited, priority 2018, dated 2023)

Target: PRMT5/MEP50 Complex (Homo sapiens (Human), UniProt O14744)
Assay: PRMT5 inhibition based on TR-FRET assay
Assay type: biochemical
Conditions: 32 nM PRMT5:MEP50 complex, 50 nM Histone-H4 peptide, 1 μM SAM, 90 minutes at room temperature
Description: Protein arginine methyltransferase 5 (PRMT5) is a type II arginine methyltransferase that catalyze mono- and symmetric demethylation on arginine residues of histone or non-histone proteins in presence of S-adenosylmethionine (AdoMet or SAM) a cofactor responsible for donating the methyl group. PRMT5 is reported to be overexpressed in several human cancers. To identify compounds that inhibit the PRMT5 and decrease its activity, a TR-FRET based assay has been established. Time-resolved fluorescence resonance energy transfer (TR-FRET) HTS assays are homogeneous proximity assays where the interaction of two dye-labeled binding partners is detected by the energy transfer between a donor and an acceptor dye, and the subsequent light emission by the acceptor dye. PRMT5 catalyzes Histone H4 peptide which is biotin tagged to the Lysine amino acid at carboxyl end, in presence of S-adenosyl-1-methionine (SAM) to methylate the peptide. The antibody specific to mono methylated H4 peptide (H4R3) with Ig conjugate binds to the methylated peptide, indirectly binding to the Europium lanthanide. […]
The compound dilutions were prepared as 7.5% DMSO stock solutions in assay buffer. […] The plates were then read on Victor-3 with Excitation at 340 nm and Emissions collected at 615 and 665 nm in TR-FRET protocol. […]

| SMILES | IC50 [nM] |
| --- | --- |
| N#CC1CCN(c2cnc(CN3CCN(C[C@H](O)CN4CCc5ccccc5C4)C3=O)cn2)CC1 [Compound 10, (R)-1-(5-((3-(3-(3,4-dihydroisoquinolin-2(1H)-yl)-2-hydroxypropyl)-2-oxoimidazolidin-1-yl)methyl)pyrazin-2-yl)piperidine-4-carbonitrile] | 52 |
| CCOC(=O)C(C)(C)C1CCN(c2ccc(CN3CCN(C[C@H](O)CN4CCc5ccccc5C4)C3=O)nc2)CC1 [Compound 13, ethyl(R)-2-(1-(6-((3-(3-(3,4-dihydroisoquinolin-2(1H)-yl)-2-hydroxypropyl)-2-oxoimidazolidin-1-yl)methyl)pyridin-3-yl)piperidin-4-yl)-2-methylpropanoate] | 17 |
